In the supplement of paper PMC9938546:
Counter-ions that a name gives are not always drawn. Some of the results follow. Many values rest on one well or one pass, so single values are uncertain.
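Note: viability estimated indirectly by image-based GFP quantification with live-cell imaging of the constitutively GFP-expressing human colorectal cancer line, no immune cells added.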

Each molecule was assayed on HCT116-GFP (assay: HCT116-GFP viability (GFP intensity) relative to untreated control, monoculture; higher = less cancer cell killing). Conditions: culture: HCT116-GFP monoculture; 10 µM; 72 h.
Nc1nc(F)nc2c1ncn2[C@@H]1O[C@H](CO)[C@@H](O)[C@@H]1O [Fludarabine] was tested, and the HCT116-GFP viability was 61.5%.
Molecule CC(=O)N[C@@H](CC(C)C)C(=O)O [N-Acetyl-L-leucine] has an HCT116-GFP viability of 114%.
With Nc1nc(=O)c2nc(CNc3ccc(C(=O)N[C@@H](CCC(=O)O)C(=O)O)cc3)cnc2[nH]1 [Folic acid] the HCT116-GFP viability was 99.9%.
CC(C)C(=O)OCC(=O)[C@@]12O[C@H](C3CCCCC3)O[C@@H]1C[C@H]1[C@@H]3CCC4=CC(=O)C=C[C@]4(C)[C@H]3[C@@H](O)C[C@@]12C [Ciclesonide] showed an HCT116-GFP viability of 31.3%.
Molecule O=C1CN2Cc3c(ccc(Cl)c3Cl)N=C2N1 [Anagrelide] has an HCT116-GFP viability of 99.8%.
With Nc1nc(=S)c2ncn([C@@H]3O[C@H](CO)[C@@H](O)[C@H]3O)c2[nH]1 [Thioguanosine] the HCT116-GFP viability was 41%.
For CC(C)NCC(O)COc1ccc(COCCOC(C)C)cc1 (centres undefined) [Bisoprolol fumarate], the HCT116-GFP viability was 104%.
For CO[C@H]1/C=C/O[C@@]2(C)Oc3c(C)c(O)c4c(c3C2=O)C2=NC3(CCN(CC(C)C)CC3)NC2=C(NC(=O)/C(C)=C\C=C\[C@H](C)[C@H](O)[C@@H](C)[C@@H](O)[C@@H](C)[C@H](OC(C)=O)[C@@H]1C)C4=O [Rifabutin], the HCT116-GFP viability was 106%.
O=C(Cn1ccnc1[N+](=O)[O-])NCCO [Etanidazole] gave an HCT116-GFP viability of 138%.
For CN(C)CCN(Cc1cccs1)c1ccccn1 [Methapyrilene hydrochloride], the HCT116-GFP viability was 97.2%.
Work on COc1c(O[C@@H]2O[C@H](CO)[C@@H](O)[C@H](O)[C@H]2O)cc2c(c1OC)-c1ccc(SC)c(=O)cc1[C@@H](NC(C)=O)CC2 [Thiocolchicoside] yielded an HCT116-GFP viability of 87.4%.
Work on Clc1ccc(C(Cn2ccnc2)OCc2c(Cl)cccc2Cl)c(Cl)c1 (centres undefined) [Isoconazole] yielded an HCT116-GFP viability of 63.3%.
For NC(=O)N1c2ccccc2C=Cc2ccccc21 [Carbamazepine], the HCT116-GFP viability was 85.2%.
With O=C1CC2(CCCC2)CC(=O)N1CCCCN1CCN(c2ncccn2)CC1 [Buspirone hydrochloride] the HCT116-GFP viability was 82.6%.
CC[C@H]1OC(=O)[C@H](C)[C@@H](O[C@H]2C[C@@](C)(OC)[C@@H](O)[C@H](C)O2)[C@H](C)[C@@H](O[C@@H]2O[C@H](C)C[C@H](N(C)C)[C@H]2O)[C@](C)(O)C[C@@H](C)[C@@H]2N[C@@H](COCCOC)O[C@H]([C@H]2C)[C@]1(C)O [Dirithromycin] showed an HCT116-GFP viability of 97.1%.
Molecule C[C@H](O)C(=O)Nc1c(I)c(C(=O)NC(CO)CO)c(I)c(C(=O)NC(CO)CO)c1I [Iopamidol] has an HCT116-GFP viability of 101%.
For CC(C)CC(=O)N[C@H](C(=O)N[C@H](C(=O)N[C@@H](CC(C)C)[C@@H](O)CC(=O)N[C@@H](C)C(=O)N[C@@H](CC(C)C)[C@@H](O)CC(=O)O)C(C)C)C(C)C [Pepstatin A], the HCT116-GFP viability was 90.4%.
Molecule Nc1ccc(S(=O)(=O)Nc2ccnn2-c2ccccc2)cc1 [Sulfaphenazole] has an HCT116-GFP viability of 93.5%.
In the case of CO/N=C(\C(=O)N[C@@H]1C(=O)N2C(C(=O)O)=C(COC(N)=O)CS[C@H]12)c1ccco1 [Cefuroxime sodium salt], the HCT116-GFP viability is reported as 97.2%.
O=C(NCC(O)CO)c1c(I)c(C(=O)NCC(O)CO)c(I)c(N(CCO)C(=O)CO)c1I (centres undefined) [Ioversol] gave an HCT116-GFP viability of 104%.
CC1Cc2ccccc2N1NC(=O)c1ccc(Cl)c(S(N)(=O)=O)c1 (centres undefined) [Indapamide] showed an HCT116-GFP viability of 95%.
Cc1cc(CC(=O)O)n(C)c1C(=O)c1ccc(Cl)cc1 [Zomepirac sodium salt] was tested, and the HCT116-GFP viability was 95.3%.
O=C(O)COC(=O)Cc1ccccc1Nc1c(Cl)cccc1Cl [Aceclofenac] gave an HCT116-GFP viability of 112%.
In the case of Cc1cnc(NC(=O)C2=C(O)c3ccccc3S(=O)(=O)N2C)s1 [Meloxicam], the HCT116-GFP viability is reported as 97.7%.
CC1CC(OC(=O)C(O)c2ccccc2)CC(C)(C)N1C (centres undefined) [Eucatropine hydrochloride] was tested, and the HCT116-GFP viability was 96.3%.
For Cc1nnc(NS(=O)(=O)c2ccc(N)cc2)s1 [Sulfamethizole], the HCT116-GFP viability was 102%.
In the case of CCN1CCN(c2cc3c(cc2F)c(=O)c(C(=O)O)cn3C2CC2)CC1 [Enrofloxacin], the HCT116-GFP viability is reported as 79.5%.
For CCN1CCC[C@H]1CNC(=O)c1c(OC)ccc(Br)c1OC [Remoxipride Hydrochloride], the HCT116-GFP viability was 99.9%.
Oc1ccc(OCc2ccccc2)cc1 [Monobenzone] gave an HCT116-GFP viability of 88.8%.
C[C@H]1C[C@H]2[C@@H]3CCC4=CC(=O)C=C[C@]4(C)[C@@]3(F)[C@@H](O)C[C@]2(C)[C@@]1(O)C(=O)CO [Betamethasone] gave an HCT116-GFP viability of 103%.
CCN1CCN(C(=O)N[C@@H](C(=O)N[C@@H]2C(=O)N3C(C(=O)O)=C(CSc4nnnn4C)CS[C@H]23)c2ccc(O)cc2)C(=O)C1=O [Cefoperazone dihydrate] gave an HCT116-GFP viability of 94.8%.
For CN(C)CCOc1ccc(/C(=C(/CCCl)c2ccccc2)c2ccccc2)cc1 [Toremifene], the HCT116-GFP viability was 82.1%.
For COC(=O)Nc1nc2ccc(SC(C)C)cc2[nH]1 [Methiazole], the HCT116-GFP viability was 14%.
With C=C1/C(=C\C=C2/CCC[C@]3(C)[C@@H]([C@H](C)/C=C/[C@@H](O)C4CC4)CC[C@@H]23)C[C@@H](O)C[C@@H]1O [Calcipotriene] the HCT116-GFP viability was 67.1%.
With Cc1ccc(Cl)c(Nc2ccccc2C(=O)O)c1Cl [Meclofenamic acid sodium salt monohydrate] the HCT116-GFP viability was 91.6%.
O=C(NCCO[N+](=O)[O-])c1cccnc1 [Nicorandil] gave an HCT116-GFP viability of 104%.
Molecule CC1=Nc2ccc(Cl)cc2S(=O)(=O)N1 [Diazoxide] has an HCT116-GFP viability of 91.2%.
Work on CC(C(=O)O)c1ccc(N2Cc3ccccc3C2=O)cc1 (centres undefined) [Indoprofen] yielded an HCT116-GFP viability of 93.2%.
With CCn1nc(C(=O)O)c(=O)c2cc3c(cc21)OCO3 [Cinoxacin] the HCT116-GFP viability was 106%.
For Cc1cc(/C=C/c2ccc3cc(N(C)C)ccc3[n+]2C)c(C)n1-c1ccccc1 [Pyrvinium pamoate], the HCT116-GFP viability was 17.4%.
CCCCNc1ccc(C(=O)OCCOCCOCCOCCOCCOCCOCCOCCOCCOC)cc1 [Benzonatate] was tested, and the HCT116-GFP viability was 82.7%.
For COCCOC(=O)C1=C(C)NC(C)=C(C(=O)OC/C=C/c2ccccc2)C1c1cccc([N+](=O)[O-])c1 (centres undefined) [Cilnidipine], the HCT116-GFP viability was 54.3%.
With O=C(O)/C=C/c1ccc(Cn2ccnc2)cc1 [Ozagrel hydrochloride] the HCT116-GFP viability was 91.9%.
With CCCc1nc(C)c2c(=O)nc(-c3cc(S(=O)(=O)N4CCN(CC)CC4)ccc3OCC)[nH]n12 [Vardenafil] the HCT116-GFP viability was 92.4%.
Molecule CC(C)NC[C@@H](O)COc1cccc2ccccc12 [(R)-Propranolol hydrochloride] has an HCT116-GFP viability of 105%.
In the case of CC(C)NCC(O)c1ccc(O)c(O)c1 (single isomer, unassigned; (+)) [(+)-Isoproterenol (+)-bitartrate salt], the HCT116-GFP viability is reported as 82.2%.
With CNCC(O)c1ccc(OC(=O)C(C)(C)C)c(OC(=O)C(C)(C)C)c1 (centres undefined) [Dipivefrin hydrochloride] the HCT116-GFP viability was 102%.
CCN(CC)CCc1nc(-c2ccccc2)no1 [Oxalamine citrate salt] showed an HCT116-GFP viability of 94.9%.
Work on Cc1c(N(C)CS(=O)(=O)O)c(=O)n(-c2ccccc2)n1C [Dipyrone] yielded an HCT116-GFP viability of 99.4%.
In the case of O=c1[nH]c(=O)n(C2CCCO2)cc1F (centres undefined) [Tegafur], the HCT116-GFP viability is reported as 87%.
For CC(NCCC(c1ccccc1)c1ccccc1)c1ccccc1 (centres undefined) [Fendiline hydrochloride], the HCT116-GFP viability was 38.5%.
COc1c2occc2c(OC)c2c(=O)cc(C)oc12 [Khellin] was tested, and the HCT116-GFP viability was 97.7%.
CC[C@H](C)C(=O)O[C@H]1CCC=C2C=C[C@H](C)[C@H](CC[C@@H]3C[C@@H](O)CC(=O)O3)[C@H]21 [Mevastatin] gave an HCT116-GFP viability of 62.1%.
Nc1cc(C(Cl)=C(Cl)Cl)c(S(N)(=O)=O)cc1S(N)(=O)=O [Clorsulon] gave an HCT116-GFP viability of 101%.
In the case of C[C@H](CCC(=O)O)[C@H]1CC[C@H]2[C@@H]3[C@H](O)C[C@@H]4C[C@H](O)CC[C@]4(C)[C@H]3CC[C@]12C [Chenodiol], the HCT116-GFP viability is reported as 102%.
For CN1CCN(c2c(F)cc3c(=O)c(C(=O)O)cn(CCF)c3c2F)CC1 [Fleroxacin], the HCT116-GFP viability was 80.3%.
CC(=O)OCC(CCn1cnc2cnc(N)nc21)COC(C)=O [Famciclovir] was tested, and the HCT116-GFP viability was 109%.
NNc1nncc2ccccc12 [Hydralazine hydrochloride] gave an HCT116-GFP viability of 90.3%.
Cc1nc(=O)c2cc(CN(C)c3ccc(C(=O)N[C@@H](CCC(=O)O)C(=O)O)s3)ccc2[nH]1 [Raltitrexed] gave an HCT116-GFP viability of 50.5%.
CN1CCN(CCCN2c3ccccc3Sc3ccc(Cl)cc32)CC1 [Prochlorperazine dimaleate] gave an HCT116-GFP viability of 45%.
Molecule O=c1oc2ccccc2c(O)c1Cc1c(O)c2ccccc2oc1=O [Dicumarol] has an HCT116-GFP viability of 99.2%.
For COc1ccc(C2CNC(=O)C2)cc1OC1CCCC1 (centres undefined) [Rolipram], the HCT116-GFP viability was 93.5%.
Molecule O=S(=O)(O)c1cc(O)ccc1O [Ethamsylate] has an HCT116-GFP viability of 93.5%.
CCC(=O)O[C@]1(C(=O)CCl)[C@@H](C)C[C@H]2[C@@H]3CCC4=CC(=O)C=C[C@]4(C)[C@@]3(F)[C@@H](O)C[C@@]21C [Clobetasol propionate] was tested, and the HCT116-GFP viability was 99.1%.
c1ccc([C@H]2CN3CCSC3=N2)cc1 [Levamisole hydrochloride] gave an HCT116-GFP viability of 91.2%.
O=C1OCCN1/N=C/c1ccc([N+](=O)[O-])o1 [Furazolidone] was tested, and the HCT116-GFP viability was 90.4%.
Nc1nc2n[nH]nc2c(=O)[nH]1 [Azaguanine-8] showed an HCT116-GFP viability of 44.6%.
In the case of CN(C)c1nc(N(C)C)nc(N(C)C)n1 [Altretamine], the HCT116-GFP viability is reported as 106%.
In the case of CC(C)NCC(O)c1ccc2ccccc2c1 (centres undefined) [Pronethalol hydrochloride], the HCT116-GFP viability is reported as 103%.
C[C@H]1C[C@@H]2[C@H]([C@@H](O)C[C@@]3(C)[C@H]2CC[C@]3(O)C(=O)CO)[C@@]2(C)C=CC(=O)C=C12 [Methylprednisolone, 6-alpha] showed an HCT116-GFP viability of 103%.
NC(=O)C(c1ccccc1)(c1ccccc1)[C@@H]1CCN(CCc2ccc3c(c2)CCO3)C1 [Darifenacin hydrobromide] showed an HCT116-GFP viability of 75%.
For CCCNCC(O)COc1ccccc1C(=O)CCc1ccccc1 (centres undefined) [Propafenone hydrochloride], the HCT116-GFP viability was 90.1%.
With COc1cc([C@@H]2c3cc4c(cc3[C@@H](O[C@@H]3O[C@@H]5CO[C@@H](C)O[C@H]5[C@H](O)[C@H]3O)[C@H]3COC(=O)[C@H]23)OCO4)cc(OC)c1O [Etoposide] the HCT116-GFP viability was 31.3%.
In the case of COc1ccccc1OCC(O)CN1CCN(CC(=O)Nc2c(C)cccc2C)CC1 (centres undefined) [Ranolazine], the HCT116-GFP viability is reported as 100%.
